Measurements published in PubChem BioAssay AID1159614 (National Center for Advancing Translational Sciences (NCATS), 2016).
About 65 (0.1%) of roughly 45,000 compounds were called active. Calls follow the shape of the dose curve; as a rule, active = well fitted activation curve with a large enough effect; inconclusive = small, poorly fitted or top-dose-only effect; inactive = no such curve, though single readings can be large or run the other way. This is one part of the list.

The molecules below were run against Galactocerebrosidase (Homo sapiens) (UniProt P54803) (assay: A Novel Cell-Based Assay to Identify Small Molecules for B -Galactocerebrosidase). Conditions: 145M-Twi-hGALC-G270D cells (Twitcher mouse brain line with human GALC G270D), HMU-beta-Gal fluorescence, 48 h; series mostly up to 57.5 µM; activation: at the top concentration.
In short: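 Fluorogenic HMU-b-Gal hydrolysis (0.1 mM final, pH 5.2 citrate-phosphate with 1 mg/mL sodium taurocholate; carbonate stop buffer) measures mutant GALC activity after compound treatment of live 145M-Twi Twitcher brain cells stably carrying human GALC-G270D, with wild-type GALC line alongside; activation sought.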
Also: 0% is about no effect; nearly all actives have a fitted effect of over 65% in size.

Sequence of UniProt P54803 (P54803 whole entry, looked up): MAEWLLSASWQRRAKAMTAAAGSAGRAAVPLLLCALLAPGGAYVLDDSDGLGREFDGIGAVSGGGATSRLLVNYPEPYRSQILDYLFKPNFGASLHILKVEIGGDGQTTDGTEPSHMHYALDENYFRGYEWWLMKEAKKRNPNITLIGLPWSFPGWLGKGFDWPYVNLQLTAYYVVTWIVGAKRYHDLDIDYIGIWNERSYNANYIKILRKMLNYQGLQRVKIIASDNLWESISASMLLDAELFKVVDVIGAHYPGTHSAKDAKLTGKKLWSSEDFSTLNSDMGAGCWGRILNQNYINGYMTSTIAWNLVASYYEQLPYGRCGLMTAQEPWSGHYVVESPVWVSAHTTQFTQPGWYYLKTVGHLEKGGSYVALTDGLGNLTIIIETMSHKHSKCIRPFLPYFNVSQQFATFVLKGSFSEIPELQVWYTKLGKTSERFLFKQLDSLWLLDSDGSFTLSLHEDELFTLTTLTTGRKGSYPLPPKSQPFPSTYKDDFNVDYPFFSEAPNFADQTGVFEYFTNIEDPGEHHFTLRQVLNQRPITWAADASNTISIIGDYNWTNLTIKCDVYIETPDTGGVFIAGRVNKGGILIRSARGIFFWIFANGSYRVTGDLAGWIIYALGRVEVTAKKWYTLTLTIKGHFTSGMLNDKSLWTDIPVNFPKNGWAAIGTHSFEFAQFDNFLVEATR

activation, inactive:
Cc1cccc(C(=O)Nc2ccccc2SCc2cc(=O)c3cccc(C)c3[nH]2)c1 -15.6%, COc1ccc(NC(=O)CCn2cccn2)cc1OC 1.56%, Cc1nnc(N2CCN(c3ccccc3F)CC2)c2c1nnn2Cc1ccccc1 -13.2%, CCOCCc1nn2c(=O)cc(COC(=O)C(CC)c3ccccc3)nc2s1 (stereo unspecified) -11.4%, CCCn1cc(S(=O)(=O)c2ccc(CC)cc2)c(=O)c2ccccc21 -12.7%, CCCCc1nn2c(=O)cc(COC(=O)c3ccc(NC(=O)C4CCCCC4)cc3)nc2s1 -12.1%, Cc1ccc(Cn2c(=O)n(Cc3ccccc3Cl)c(=O)c3ccccc32)cc1 -20%, Cc1ccc(N(C)C(=O)C2CCCN(c3ncnc4c3nc3n4CCCCC3)C2)cc1C (stereo unspecified) -11.4%, Cc1ccc2occ(-c3cc(-c4ccc(Cl)cc4)nc4c3COc3ccccc3-4)c(=O)c2c1 -12.5%, CCOc1ccc(NC(=O)Cn2c(=O)n(CCC(=O)NCCc3ccccc3)c(=O)c3ccccc32)cc1 3.34%, Cc1ccc(C(c2sc3nc(-c4ccco4)nn3c2O)N2CCN(Cc3ccccc3)CC2)cc1 (stereo unspecified) -27.5%, COc1ccccc1CNC(=O)c1cnn2c(C)c(Cc3ccc(F)cc3)c(C)nc12 -14.4%, COc1cccc(C2CC(=O)Nc3c2c(=O)nc2c(C)cccn32)c1OC (stereo unspecified) -10.7%, Cc1ccc(-c2nc3cc(Cl)ccc3o2)cc1NC(=O)COc1ccc(F)cc1 -6.53%, CC1=C(C(=O)OC2CCCC2)C(c2ccccc2Cl)CC(=O)N1 (stereo unspecified) -25.3%, CCOC(=O)c1ccc(NC(=O)CN2C(=O)COc3ccc(Cl)cc32)cc1 -23.7%, CC1CCCN(CCCNC(=O)CN2C(=O)CSc3ccc(S(=O)(=O)N4CCOCC4)cc32)C1 (stereo unspecified) 0.79%, COc1ccc(-c2nc3sc(CCNC(=O)C(=O)Nc4c(C)cccc4C)c(C)n3n2)cc1 -9.99%, Cc1c(C(=O)N2CCC(C)CC2)c(S(=O)(=O)N2CCN(c3ccc(Cl)cc3)CC2)c(C)n1C -12.3%, CCOc1ccccc1NC(=O)Cn1nnc(C(=O)Nc2ccc(C)c(C)c2)c1N -11.4%, Cn1nccc1C(=O)NCc1ccc2c(c1)CCN2C(=O)c1ccccc1 -14.8%, Cc1ccc(Cl)cc1N1CCN(C(=O)C2CCN(Cc3nc(-c4ccc(Cl)cc4)oc3C)CC2)CC1 -4.5%, CC(C)(C)OC(=O)N1CCC(c2c(C(=O)NC3CCCCC3)cnn2-c2cccc(Cl)c2)CC1 -22.9%, Cc1ccc(Cl)cc1N1CCN(S(=O)(=O)c2cc3[nH]c(=O)c(=O)[nH]c3cc2C)CC1 0.861%, O=C(Cn1c(=O)oc2cc(S(=O)(=O)NC3CCCC3)ccc21)Nc1ccc(F)c(F)c1 -42.5%, Cc1ccccc1CS(=O)(=O)Cc1ccc(C(=O)NCc2ccc(F)cc2)o1 -36.6%, COc1cccc(NC(=O)CCNC(=O)Cn2ccc3ccccc3c2=O)c1 4.54%, Cc1ccc(NC(=O)Cn2c(=O)ccc3cc(S(=O)(=O)N4CCC(C)CC4)ccc32)cc1Cl -11.3%, Cc1ccc(C)c(NC(=O)c2cc(=O)c3cc(C)cc(C)c3o2)c1 -13.2%, O=C1CC(c2ccc(Cl)cc2)N=C(NC(=O)c2ccccc2)N1 (stereo unspecified) -5.2%, COCCNc1ncnc2c1c(-c1ccccc1)cn2-c1cccc(Cl)c1 -9.39%, COc1ccc(CNC(=O)C2CCN(S(=O)(=O)c3cccc4nonc34)CC2)cc1OC -6.02%, Cc1ccc(NC(=O)CSc2nnc(N)s2)c(C)c1 -16.4%, CCc1ccc(NCc2cc3cc4c(cc3n(CC(=O)Nc3ccc(F)cc3)c2=O)OCCO4)cc1 -3.34%, CC(C)C(=O)OCc1cc(=O)n2nc(C3CCCCC3)sc2n1 -21.2%, Cc1ccc(NC(=O)C2CCCN2S(=O)(=O)c2cccc3cccnc23)cc1C (stereo unspecified) 1.27%, Cn1ccnc1SCC(=O)Nc1cc(Cl)ccc1Cl 5.85%, CCN(CC)c1ccc(C2C(C(N)=O)=C(C)Nc3ncnn32)cc1 (stereo unspecified) 3.12%, CCCCNC(=O)CCc1c(C)nc2c(c(C)nn2-c2ccccc2)c1C -2.25%, Cn1c(=O)c2c(nc(SCC(=O)Nc3ccc(F)cc3)n2Cc2ccccc2)n(C)c1=O -8.88%, COc1ccc(NS(=O)(=O)c2ccc3[nH]c4c(c3c2)CCCCCC4)cc1 -17.3%, CCC(C(=O)Nc1ccc(C(C)=O)cc1)n1c(C)c2cnn(-c3ccccc3)c(=O)c2c1C (stereo unspecified) -15.4%, Cc1cc(O)c(C(C)C)cc1Cl -10.5%, Fc1ccc(CNc2nc(-c3ccccc3)cc(C(F)(F)F)n2)cc1 -17.8%, COc1cccc(OCc2nc3ccccc3n2CCOc2cccc(C)c2)c1 -9.31%, Cc1ccccc1CN1CCCN(CC(=O)Nc2c(C)cccc2C)S1(=O)=O -10.3%, COc1ccccc1N1CCN(C(CNC(=O)C(=O)NCCc2ccccc2)c2cccnc2)CC1 (stereo unspecified) -13.3%, O=C(NCCc1ccccc1)c1cc(Sc2ccc(F)cc2F)nc2ccccc12 -0.333%, Cc1cccc(CS(=O)(=O)c2ncc(Cl)c(C(=O)NCc3ccccc3)n2)c1 -33.2%, O=C(Nc1ccc(F)cc1F)c1ccc(-n2cnnc2)cc1 -15.2%, O=C(NCC12CC3CC(CC(C3)C1)C2)c1cc2nc(-c3ccc(F)cc3)cc(C(F)(F)F)n2n1 -12%, COc1ccc(-c2onc(C)c2C)cc1S(=O)(=O)NC1CCC(C)CC1 (stereo unspecified) -3.69%, Cc1ccc(OCC(=O)Nc2ccc(C(=O)OCc3cc(=O)n4c(C)csc4n3)cc2)cc1 -11.3%, COc1cccc(-c2ccc3c(N)c(C(=O)Nc4ccc(C)c(F)c4)sc3n2)c1 -22%, COc1ccc(-c2cc(C(F)(F)F)nc(SCCC(=O)Nc3c(C)cccc3C)n2)cc1 1.51%, COc1cc(NC(=O)Cn2cc(S(=O)(=O)c3ccccc3)c(=O)c3ccccc32)cc(OC)c1 -0.61%, CCOc1cc(C2c3c(-c4ccccc4O)n[nH]c3C(=O)N2CCc2ccccc2)ccc1O (stereo unspecified) -8.41%, CCc1ccc(C2c3c(oc4ccc(C)cc4c3=O)C(=O)N2c2nc(C)c(C)s2)cc1 (stereo unspecified) -18.4%, CC(C)CNC(=O)C1=CC(c2ccc3c(c2)OCO3)=NS(=O)(=O)N1C -11.7%, COc1ccc(N2CCN(C(=O)Nc3cccc(C(F)(F)F)c3)CC2)cc1 -4.73%, Cc1ccc(Cn2c(CNC(=O)c3ccccc3Br)nc3cccnc32)cc1 -0.514%, CCc1ccccc1NC(=O)Cc1c(C(=O)O)[nH]c2ccc(Cl)cc12 -11.5%, Cc1ccc(-n2c(=O)c3oc4ccccc4c3n(CC(=O)Nc3ccccc3)c2=O)cc1C -4.14%, Cc1cc(-n2c(C)nc3ccccc3c2=O)ccc1NC(=O)c1cccc([N+](=O)[O-])c1 -21.3%, Cc1cccc(NC(=O)CSc2cc(C)c3ccccc3n2)c1 -16.2%, O=C(NCCc1ccccc1)C(=O)Nc1cccc(Br)c1 -9.96%, Oc1c(C(c2ccccc2)N2CCN(c3ccccc3)CC2)sc2nc(-c3ccco3)nn12 (stereo unspecified) -18.3%, Cc1ccc(C(=O)COC(=O)CCC(=O)Nc2ccc(Oc3ccccc3)cc2)cc1C -9.43%, CO/N=C(\C(=O)O)c1csc(NC(=O)CCl)n1 -11.5%, Cn1c(CCNC(=O)c2ccco2)nc2cc(NC(=O)COc3ccc(Cl)cc3)ccc21 -0.278%, O=C(CSc1nc(=O)[nH]c2c1CCC2)NCc1ccccc1 -0.19%, COc1cccc(NC(=O)/C(C#N)=C\c2cn(Cc3ccc(Cl)cc3)c3ccccc23)c1 -24.1%, CCc1ccc(-c2nn(CC(=O)NC3CCCCC3)c3c2cnc2ccc(OC)cc23)cc1 -17.5%, COc1ccc(NC(=O)CSC2=Nc3ccccc3C3=NC(CC(=O)NCc4ccc(F)cc4)C(=O)N23)cc1 (stereo unspecified) -8.5%, COc1ccc(CC(=O)Nc2sc3c(c2C(=O)Nc2c(C)cccc2C)CCCCC3)cc1 -7.79%, Cc1ccc(Cl)cc1NC(=O)C(=O)NCCc1sc(-c2ccc(F)cc2)nc1C -8.9%, Cc1ccc(Cl)cc1N1CCN(C(=O)c2ccc(C)c(-n3c(C)nc4cccnc43)c2)CC1 -27.4%, CCc1nc2ccc(C(=O)N3CCN(c4ccc(Cl)cc4)CC3)cc2nc1CC -3%, CCCCc1ccc(C(=O)N/C(=C\c2ccc(C)cc2)C(=O)NC2CCCCC2)cc1 -18.4%, COc1ccc(CNC(=O)Cn2c(=O)oc3cc(S(=O)(=O)N4CCCC4)ccc32)cc1 -8.18%, CCCOc1ccc(C(=O)Nc2c(C(=O)c3ccc(C)cc3)oc3ccccc23)cc1 15.2%, Cc1cccc(S(=O)(=O)c2cn(Cc3ccccc3)c3cc(N4CCCCC4C)c(F)cc3c2=O)c1 (stereo unspecified) -21.4%, Cc1cccc(CNC(=O)c2ccc(Cn3c(=O)c4cccn4c4cccnc43)cc2)c1 -12.1%, COc1cccc(Nc2nc(-c3ccccc3)c3cc(C)ccc3n2)c1 -16.5%, O=C(CC1N=C2c3ccccc3N=C(SCc3ccccc3F)N2C1=O)NCc1cccs1 (stereo unspecified) -14.1%, Cc1ccc(NC(=O)C(Cc2ccccc2)NS(=O)(=O)c2cccc3nsnc23)c(C)c1 (stereo unspecified) -9.56%, CCN(CCCNC(=O)c1cc2cc3ccc(OC)cc3nc2s1)c1ccccc1 9.62%, CCCCNc1cc(C(=O)O)cc(S(N)(=O)=O)c1Oc1ccccc1 -16.4%, COc1cc(C2CC(=O)Nc3c2c(=O)nc2c(C)cccn32)cc(OC)c1OC (stereo unspecified) -15.4%, CC1CCCCN1S(=O)(=O)c1ccc2c(c1)oc(=O)n2CC(=O)Nc1ccc(Cl)cc1 (stereo unspecified) -8.82%, CCS(=O)(=O)N1CCc2cc(C(=O)Nc3cc(Cl)ccc3C)ccc21 -18.6%, Cc1nn2c(-c3cccc(NC(=O)c4ccc(Cl)cc4)c3)nnc2c2ccccc12 4.33%, CCN1CCC(N(Cc2ccc3c(c2)OCO3)C(=O)Nc2ccc(Br)c(C)c2)CC1 -4.72%, Cc1ccc(N2CCN(C(=O)c3cn(C)c4ccc(S(=O)(=O)N(C)C5CCCCC5)cc4c3=O)CC2C)cc1 (stereo unspecified) -9.78%, CCCCOCc1cc(CN2CCN(c3cccc(Cl)c3)CC2)c(O)c2ncccc12 -8.8%, COc1ccc(CCNC(=O)CCS(=O)(=O)c2ccc3c(c2)oc(=O)n3C)cc1OC -22.1%
